Measurements as given in the RNAGym collection of RNA variant scans (doi:10.1073/pnas.2313332121).
This sample is rich in variants without activity.

B1: TPR 5TU (parent)
chain: GGAUCUUCUCGAUCUAACAAAAAAGACAAAUCUGCCACAAAGCUUGAGAGCAUCUUCGGAUGCAGAGGCGGCAGCCUUCGGUGGCGCGAUAGCGCCAACGUUCUCAACUAUGACACGCAAAACGCGUGCUCCGUUGAAUGGAGUUUAUCAUG

Variants of: B1
Experiment: polymerase ribozyme fitness, log enrichment relative to wild type (log ratio); higher = more active; in vitro selection for triplet polymerase activity
Method in brief: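 Only genotypes with ≥10 input reads and ≥1 read per output were kept after Illumina sequencing of input and output libraries. These libraries were PCR-built, transcribed mutants of each subunit of a heterodimeric triplet polymerase ribozyme, each put through one triplicate in vitro selection round with frozen incubation at −7 °C, gel excision of extended constructs, streptavidin-bead capture and RT-PCR. Fitness is a logarithmic ratio of genotype enrichment to wild-type enrichment, from inverse-variance-weighted replicate averages, with the logarithm in base 2.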

Variant | polymerase ribozyme fitness (log ratio)
C43U U44A G58A G68C C93A U109C | ≤ -4.2
C43U U53G C79G G94A A115C U130A | ≤ -4.2
U44C G88A U135A U139G | ≤ -4.2
U44A G62U C63A A66G G83U A91G C108G G112U | ≤ -4.2
C43U U82G U101G | -4.04
C43G G84U G92U U134G | ≤ -4.2
C43U U61G G94U C116U U144G C149G | ≤ -4.2
U44A G50C G94C G126U | ≤ -4.2
U44A C85G C105U U139A | ≤ -4.2
C43U C57A G80C C95A A122U | ≤ -4.2
C43U C87A C116U C131G | ≤ -4.2
U44C U55G U56A C63G G65A A66G G88U U135A | ≤ -4.2
U44C G58C U82A U111A | ≤ -4.2
U44A U56A U61A A97U | ≤ -4.2
C43U C57U C93G U104A A142G | ≤ -4.2
U44A U78G C85G G100U C103A | ≤ -4.2
U44A C87G C132G | ≤ -4.2
U44C U55A G59A G83A C87U U145A | ≤ -4.2
U44G A49C C93U C125U A150U | ≤ -4.2
U44A G92A A115U C118U | ≤ -4.2
U44C C76U C87A C114U C118G A142U | ≤ -4.2
U44A G88C A91U C118A | ≤ -4.2
U44A U55A U56G C63G C93G A115U | ≤ -4.2
U44C G50A C95G A107G U135C | ≤ -4.2

Variant | polymerase ribozyme fitness (log ratio)
C43U C93G | ≤ -4.2
U44A G88A C118U G141U U146C A150G | ≤ -4.2
C43G G58C A138U G141U | ≤ -4.2
U44A G80C C87G | ≤ -4.2
U44A C51U | ≤ -4.2
C43U G83U A120G | ≤ -4.2
U44A G81A A137G | ≤ -4.2
U44A G50C G84U G88A U139C G152A | ≤ -4.2
U44A G50C G84U G88A U139C G152U | ≤ -4.2
C43U C76A C95U | ≤ -4.2
U44A C85A A121G U135G A150C | ≤ -4.2
C43U C54G G74U G88U A89U G100U A121U | ≤ -4.2
U44A G92A G94C C123A G133U U139C U146G | ≤ -4.2
C43U G50C A60U G84A G117U A137G A138U | ≤ -4.2
C43U C72U U134G U139C | ≤ -4.2
U44A C95U C96G A120C | ≤ -4.2
U44A A52C | -3.94
C43U C85A C96U U146A | ≤ -4.2
C43U A60C C63U A64G A66C A91C A110C | ≤ -4.2
U44A G50A A60C A73G C76U C96A G143C U146A | ≤ -4.2
U44A G50A A89U G136U | ≤ -4.2
C43U G50C C85A C87G C95U G128U U146A | ≤ -4.2
U44A A47C G84A | ≤ -4.2
C43U C54A U77G G83C A106G | ≤ -4.2

Variant | polymerase ribozyme fitness (log ratio)
U44A C85A A142C | ≤ -4.2
C43U U78A C85A A115C | ≤ -4.2
C43U C57A C85G A106C | ≤ -4.2
C43U C75G G80U C123U C131U | ≤ -4.2
C43U U55C C93A | ≤ -4.2
U44A C57G A107C U135C | ≤ -4.2
C43U G67A G86U C93U A142C | ≤ -4.2
U44A C51G C75U C85G U127G A142G | ≤ -4.2
U44A A115G | ≤ -4.2
C43G G83C U144C | ≤ -4.2
U44A U144G U151G | ≤ -4.2
C43U G46A G74U | ≤ -4.2
U44A G50A C57U C72U G92A G141U G143U A150G | ≤ -4.2
C43G U45C U53A G59A G83A G136C | ≤ -4.2
U44A C116G | -4.19
C43U A73U G86A U90A | ≤ -4.2
C43U C93G U109G | ≤ -4.2
U44A C69A G92A C93G U145G | ≤ -4.2
U44A U53A G81A C87A A106C | ≤ -4.2
U44A A47C C54A U78A C87G | ≤ -4.2
C43U G80C C95U | ≤ -4.2
C43U G100C | ≤ -4.2
U44A G67A U77G U78G C87A C95G | ≤ -4.2
U44A G80C G92A G100C G141A | ≤ -4.2

Variant | polymerase ribozyme fitness (log ratio)
U44A C54U C57U G88A A91U C96U A115C | ≤ -4.2
U44A G117A U135G | ≤ -4.2
U44C A91C C105A A115G | ≤ -4.2
U44A C54U A60U U61G G71A C103G | ≤ -4.2
C43U U45G G133U U134C | ≤ -4.2
U44A A66C U102C G143U | ≤ -4.2
U44A C72A U82G C93G A142G | ≤ -4.2
C43U C93G C118U U148G | ≤ -4.2
C43U G84U C105U | ≤ -4.2
U44A G84A C85G C95G C99U | -3.94
C43U U53G | ≤ -4.2
C43U G74C C93G U146A | ≤ -4.2
C43G U55A C96A A98C A121U | ≤ -4.2
U44A A98U U102C A113G U146A | ≤ -4.2
U44A U109G | ≤ -4.2
C43U A60G U61G G86A U134G | ≤ -4.2
U44A C54G C87U A91U C103G C129A G152U | ≤ -4.2
U44C U135G U148G | ≤ -4.2
C43G U44A G58A G88U C95U U135G | ≤ -4.2
U44A G50U G92C C103G C125A | ≤ -4.2
C43U A49U U55A G92C | ≤ -4.2
C43U C85G A150G | ≤ -4.2
C43U U45G G59A U139A A142G | ≤ -4.2
U44A G92A | ≤ -4.2

Variant | polymerase ribozyme fitness (log ratio)
U44A U53A U55A U56A G92U A121C | ≤ -4.2
C43U G126C U134C G141U | ≤ -4.2
C43U G86U C108G | ≤ -4.2
U44A G46C C87U | ≤ -4.2
U44A A52G A91G | ≤ -4.2
U44A A64G C72G G80C C96U U104C A122G U146A | ≤ -4.2
C43U C103G A122C | ≤ -4.2
C43G U56A | ≤ -4.2
U44A G81C A98U G141C A147C | ≤ -4.2
C43U U45A G68A C79A G94A C123U | ≤ -4.2
U44A C51G U90G C116G G133A U135G G141U | ≤ -4.2
U44A U55A C85A A113C | ≤ -4.2
U44A U53A G74A C87U | ≤ -4.2
U44A C51A C57U A60G A89U G92U A147G | ≤ -4.2
U44A U45A C93G | ≤ -4.2
C43U A73G C96U A119U C125G G136A | ≤ -4.2
U44A G59C A60U U146A | ≤ -4.2
C43G C118A | ≤ -4.2
C43U U61A | ≤ -4.2
C43U U56A C87U U109G | ≤ -4.2
C43U U82A C103A A150U | ≤ -4.2
C43U A150U | ≤ -4.2
U44A C54A C75G G92U U145C | ≤ -4.2
C43U U45C A60C A66C A91C | ≤ -4.2

Variant | polymerase ribozyme fitness (log ratio)
C43U G84U | ≤ -4.2
U44A C79U A89G U104A A107G | ≤ -4.2
C43U A52C G67A U78C C93A A107G A142C | ≤ -4.2
C43U C75G C87G | ≤ -4.2
U44A U53A G68A | ≤ -4.2
C43U G94A G126U | ≤ -4.2
C43U U55G G68C G88A | ≤ -4.2
C43U C54G G74C C79G | ≤ -4.2
U44A C51G C57A G84C C105G C118G G141A C149A G152U | ≤ -4.2
U44A C63G C87U | ≤ -4.2
U44A A52G C85A C118U | ≤ -4.2
C43U G65C A73U A142C U146G | ≤ -4.2
U44A C54U U61A C99G | ≤ -4.2
C43U A52G C57U A60C C105A C114U A138G | ≤ -4.2
C43U A89U G94U C105G C132A U151C | ≤ -4.2
C43U A52C U53A G92A C118U | ≤ -4.2
C43U G86U C93U C99G C103G C129G | ≤ -4.2
U44A G48C G62A A66C G68U G70A C87A A91C | ≤ -4.2
U44A C85G C103A U104C C131U | ≤ -4.2
C43U U45A G48C C54U C87U U102G | ≤ -4.2
C43U C96U G126A A147U U151G | ≤ -4.2
U44A C93U | ≤ -4.2
U44A C93A | ≤ -4.2
U44A C93G | ≤ -4.2

Variant | polymerase ribozyme fitness (log ratio)
C43U G59C G67A C75A G86U | ≤ -4.2
U44A G92A C105G C118G A142G | ≤ -4.2
U44A G68C C103U | ≤ -4.2
U44A U53A C85G G88C C118A | ≤ -4.2
C43G G59A C93A U151C | ≤ -4.2
C43U G84U U134C A142U | ≤ -4.2
U44A C76A G80U C93G | ≤ -4.2
U44A A49G A97G U101G | ≤ -4.2
C43U C79A G84U C95A G133U U135G U151A | ≤ -4.2
U44A G50C G94A A142C | ≤ -4.2
C43G U77A G80A G92A A106C | ≤ -4.2
C43U A47C U56A U78G C87G | ≤ -4.2
U44A U90G C93U G143A U151G | ≤ -4.2
C43U A64U G92U A107C U139G | ≤ -4.2
C43G U56A G112A U134C | ≤ -4.2
U44A A52U C76G G83C C96U C99U | ≤ -4.2
U44A C54U U82G C87A C123U | ≤ -4.2
C43U G46A U90C C95U A106U | ≤ -4.2
C43U G46C C54U C72U C79U C87A G92C C103U G140U U145G | ≤ -4.2
U44A C87G C105G G126U A142C | ≤ -4.2
U44A A47C G88C | ≤ -4.2
U44A C57U G80C G81A G94U | ≤ -4.2
C43U U90C C93U C125G | ≤ -4.2
